# Source: patent publication US9567399 (dated 2017)
# B1: 1D05 IgG1 disabled (antibody)
# chain 1: EVQLVESGGGLVQPGRSLRLSCAASGFTFDDYAMHWVRQVPGKGLEWVSGISWIRTGIGYADSVKGRFTIFRDNAKNSLYLQMNSLRAEDTALYYCAKDMKGSGTYGGWFDTWGQGTLVTVSS[human IgG1 constant region with L235A G237A (EU numbers) omitted]
# chain 2: [about 100 residues omitted][about 100 residues omitted]
# Target: human PD-L1 His (human)
# Test: SPR, 25C
binder,measurement,value
B1,Kd,290 pM
